{"source": "the supplement of paper PMC8728848", "binders": {"B1": {"name": "Gal 7 (Homo sapiens) (protein)", "chain": "MSNVPHKSSLPEGIRPGTVLRIRGLVPPNASRFHVNLLCGEEGGSDAALHFNPRLDTSEVVFNSKEGGSWGREERGPGVPFGRGQPFEVLIIASDDGFKAVVGDAQYHHFRHRLPLARVRLVEVGGDVQLDSVRIF"}}, "experiment_in_all_cases": "glycan array binding signal (z-score within array); higher = stronger binding", "settings_in_all_cases": "glycan notation: IUPAC condensed, linker removed", "key": {"GalNAc3S(b1-4)GlcNAc3S": {"target": "GalNAc3S(b1-4)GlcNAc3S", "outline": "(§1)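 Negative Z-scores can be read as non-binding. The Z-score is calculated within each array and then averaged across arrays of one protein sequence at different concentrations or buffers and across linkers. Arrays, 3228 in all, were curated from the Consortium for Functional Glycomics database and kept only where the protein sequence was available.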"}, "[1]": {"target": "GalNAc3S(b1-4)[Fuc(a1-3)]GlcNAc", "outline": "as §1"}, "GalNAc4S6S(b1-4)GlcNAc": {"target": "GalNAc4S6S(b1-4)GlcNAc", "outline": "as §1"}, "GalNAc6S(b1-4)GlcNAc": {"target": "GalNAc6S(b1-4)GlcNAc", "outline": "as §1"}, "Glc(a1-4)Glc": {"target": "Glc(a1-4)Glc", "outline": "as §1"}, "[2]": {"target": "Glc(a1-4)Glc(a1-4)Glc(a1-4)Glc", "outline": "as §1"}, "Glc(a1-6)Glc(a1-6)Glc": {"target": "Glc(a1-6)Glc(a1-6)Glc", "outline": "as §1"}, "[3]": {"target": "Glc(a1-6)Glc(a1-6)Glc(a1-6)Glc", "outline": "as §1"}, "Glc(b1-4)Glc": {"target": "Glc(b1-4)Glc", "outline": "as §1"}, "Glc(b1-6)Glc": {"target": "Glc(b1-6)Glc", "outline": "as §1"}, "GlcA(b1-3)Gal": {"target": "GlcA(b1-3)Gal", "outline": "as §1"}, "GlcA(b1-3)GlcNAc": {"target": "GlcA(b1-3)GlcNAc", "outline": "as §1"}, "GlcA(b1-6)Gal": {"target": "GlcA(b1-6)Gal", "outline": "as §1"}, "[4]": {"target": "GlcA3S(b1-3)Gal(b1-4)GlcNAc(b1-2)Man", "outline": "as §1"}, "[5]": {"target": "GlcA3S(b1-3)Gal(b1-4)GlcNAc(b1-3)Gal(b1-4)Glc", "outline": "as §1"}, "[6]": {"target": "GlcNAc(a1-3)Gal(b1-4)GlcNAc", "outline": "as §1"}, "[7]": {"target": "GlcNAc(a1-4)Gal(b1-3)GlcNAc", "outline": "as §1"}, "[8]": {"target": "GlcNAc(a1-4)Gal(b1-4)GalNAc", "outline": "as §1"}, "[9]": {"target": "GlcNAc(a1-4)Gal(b1-4)GlcNAc", "outline": "as §1"}, "[10]": {"target": "GlcNAc(a1-4)Gal(b1-4)GlcNAc(b1-3)Gal(b1-4)Glc", "outline": "as §1"}, "[11]": {"target": "GlcNAc(a1-4)Gal(b1-4)GlcNAc(b1-3)Gal(b1-4)GlcNAc", "outline": "as §1"}, "[12]": {"target": "GlcNAc(a1-4)Gal(b1-4)GlcNAc(b1-3)Gal(b1-4)GlcNAc(b1-3)Gal(b1-4)GlcNAc", "outline": "as §1"}, "[13]": {"target": "GlcNAc(a1-4)Gal(b1-4)GlcNAc(b1-3)Gal(b1-4)[Fuc(a1-3)]GlcNAc(b1-3)Gal(b1-4)[Fuc(a1-3)]GlcNAc", "outline": "as §1"}, "[14]": {"target": "GlcNAc(a1-6)Gal(b1-4)GlcNAc", "outline": "as §1"}, "[15]": {"target": "GlcNAc(b1-2)Gal(b1-3)GalNAc", "outline": "as §1"}, "[16]": {"target": "GlcNAc(b1-2)Gal(b1-3)GlcNAc", "outline": "as §1"}, "[17]": {"target": "GlcNAc(b1-2)Man(a1-3)[GlcNAc(b1-2)Man(a1-6)]Man(b1-4)GlcNAc(b1-4)GlcNAc", "outline": "as §1"}, "[18]": {"target": "GlcNAc(b1-2)Man(a1-3)[GlcNAc(b1-2)Man(a1-6)]Man(b1-4)GlcNAc(b1-4)[Fuc(a1-6)]GlcNAc", "outline": "as §1"}, "[19]": {"target": "GlcNAc(b1-2)Man(a1-3)[GlcNAc(b1-4)][GlcNAc(b1-2)Man(a1-6)]Man(b1-4)GlcNAc(b1-4)GlcNAc", "outline": "as §1"}, "[20]": {"target": "GlcNAc(b1-2)Man(a1-3)[GlcNAc(b1-4)][GlcNAc(b1-2)Man(a1-6)]Man(b1-4)GlcNAc(b1-4)[Fuc(a1-6)]GlcNAc", "outline": "as §1"}, "[21]": {"target": "GlcNAc(b1-2)[GlcNAc(b1-4)]Man(a1-3)[GlcNAc(b1-2)Man(a1-6)]Man(b1-4)GlcNAc(b1-4)GlcNAc", "outline": "as §1"}, "[22]": {"target": "GlcNAc(b1-2)[GlcNAc(b1-4)]Man(a1-3)[GlcNAc(b1-4)][GlcNAc(b1-2)Man(a1-6)]Man(b1-4)GlcNAc(b1-4)GlcNAc", "outline": "as §1"}, "[23]": {"target": "GlcNAc(b1-2)[GlcNAc(b1-4)]Man(a1-3)[GlcNAc(b1-4)][GlcNAc(b1-2)[GlcNAc(b1-6)]Man(a1-6)]Man(b1-4)GlcNAc(b1-4)GlcNAc", "outline": "as §1"}, "[24]": {"target": "GlcNAc(b1-2)[GlcNAc(b1-4)]Man(a1-3)[GlcNAc(b1-4)][GlcNAc(b1-2)[GlcNAc(b1-6)]Man(a1-6)]Man(b1-4)GlcNAc(b1-4)[Fuc(a1-6)]GlcNAc", "outline": "as §1"}, "[25]": {"target": "GlcNAc(b1-2)[GlcNAc(b1-6)]Man(a1-6)[GlcNAc(b1-2)Man(a1-3)]Man(b1-4)GlcNAc(b1-4)GlcNAc", "outline": "as §1"}, "[26]": {"target": "GlcNAc(b1-2)[GlcNAc(b1-6)]Man(a1-6)[GlcNAc(b1-2)Man(a1-3)]Man(b1-4)GlcNAc(b1-4)[Fuc(a1-6)]GlcNAc", "outline": "as §1"}, "[27]": {"target": "GlcNAc(b1-2)[GlcNAc(b1-6)]Man(a1-6)[GlcNAc(b1-2)Man(a1-3)][GlcNAc(b1-4)]Man(b1-4)GlcNAc(b1-4)GlcNAc", "outline": "as §1"}, "[28]": {"target": "GlcNAc(b1-2)[GlcNAc(b1-6)]Man(a1-6)[GlcNAc(b1-4)][GlcNAc(b1-2)Man(a1-3)]Man(b1-4)GlcNAc(b1-4)GlcNAc", "outline": "as §1"}, "GlcNAc(b1-3)Fuc": {"target": "GlcNAc(b1-3)Fuc", "outline": "as §1"}, "GlcNAc(b1-3)Gal": {"target": "GlcNAc(b1-3)Gal", "outline": "as §1"}, "[29]": {"target": "GlcNAc(b1-3)Gal(b1-3)GalNAc", "outline": "as §1"}, "GlcNAc(b1-3)Gal(b1-4)Glc": {"target": "GlcNAc(b1-3)Gal(b1-4)Glc", "outline": "as §1"}, "[30]": {"target": "GlcNAc(b1-3)Gal(b1-4)GlcNAc", "outline": "as §1"}, "[31]": {"target": "GlcNAc(b1-3)Gal(b1-4)GlcNAc(b1-2)Man(a1-3)[GlcNAc(b1-3)Gal(b1-4)GlcNAc(b1-2)Man(a1-6)]Man(b1-4)GlcNAc(b1-4)GlcNAc", "outline": "as §1"}, "[32]": {"target": "GlcNAc(b1-3)Gal(b1-4)GlcNAc(b1-2)Man(a1-3)[GlcNAc(b1-3)Gal(b1-4)GlcNAc(b1-2)Man(a1-6)]Man(b1-4)GlcNAc(b1-4)[Fuc(a1-6)]GlcNAc", "outline": "as §1"}}, "note": "The other results are listed elsewhere or left out.", "data": [{"binder": "B1", "values": [{"measurement": "glycan array binding signal (z-score)", "setting": "GalNAc3S(b1-4)GlcNAc3S", "result": -0.264}, {"measurement": "glycan array binding signal (z-score)", "setting": "[1]", "result": -0.281}, {"measurement": "glycan array binding signal (z-score)", "setting": "GalNAc4S6S(b1-4)GlcNAc", "result": -0.233}, {"measurement": "glycan array binding signal (z-score)", "setting": "GalNAc6S(b1-4)GlcNAc", "result": -0.335}, {"measurement": "glycan array binding signal (z-score)", "setting": "Glc(a1-4)Glc", "result": -0.293}, {"measurement": "glycan array binding signal (z-score)", "setting": "[2]", "result": -0.19}, {"measurement": "glycan array binding signal (z-score)", "setting": "Glc(a1-6)Glc(a1-6)Glc", "result": -0.308}, {"measurement": "glycan array binding signal (z-score)", "setting": "[3]", "result": -0.074}, {"measurement": "glycan array binding signal (z-score)", "setting": "Glc(b1-4)Glc", "result": -0.306}, {"measurement": "glycan array binding signal (z-score)", "setting": "Glc(b1-6)Glc", "result": -0.292}, {"measurement": "glycan array binding signal (z-score)", "setting": "GlcA(b1-3)Gal", "result": -0.315}, {"measurement": "glycan array binding signal (z-score)", "setting": "GlcA(b1-3)GlcNAc", "result": -0.179}, {"measurement": "glycan array binding signal (z-score)", "setting": "GlcA(b1-6)Gal", "result": -0.332}, {"measurement": "glycan array binding signal (z-score)", "setting": "[4]", "result": -0.267}, {"measurement": "glycan array binding signal (z-score)", "setting": "[5]", "result": -0.273}, {"measurement": "glycan array binding signal (z-score)", "setting": "[6]", "result": -0.362}, {"measurement": "glycan array binding signal (z-score)", "setting": "[7]", "result": -0.285}, {"measurement": "glycan array binding signal (z-score)", "setting": "[8]", "result": 0.304}, {"measurement": "glycan array binding signal (z-score)", "setting": "[9]", "result": -0.085}, {"measurement": "glycan array binding signal (z-score)", "setting": "[10]", "result": -0.052}, {"measurement": "glycan array binding signal (z-score)", "setting": "[11]", "result": 0.029}, {"measurement": "glycan array binding signal (z-score)", "setting": "[12]", "result": 0.598}, {"measurement": "glycan array binding signal (z-score)", "setting": "[13]", "result": 0.512}, {"measurement": "glycan array binding signal (z-score)", "setting": "[14]", "result": -0.337}, {"measurement": "glycan array binding signal (z-score)", "setting": "[15]", "result": -0.329}, {"measurement": "glycan array binding signal (z-score)", "setting": "[16]", "result": -0.382}, {"measurement": "glycan array binding signal (z-score)", "setting": "[17]", "result": -0.324}, {"measurement": "glycan array binding signal (z-score)", "setting": "[18]", "result": -0.155}, {"measurement": "glycan array binding signal (z-score)", "setting": "[19]", "result": -0.159}, {"measurement": "glycan array binding signal (z-score)", "setting": "[20]", "result": -0.253}, {"measurement": "glycan array binding signal (z-score)", "setting": "[21]", "result": -0.236}, {"measurement": "glycan array binding signal (z-score)", "setting": "[22]", "result": -0.311}, {"measurement": "glycan array binding signal (z-score)", "setting": "[23]", "result": -0.33}, {"measurement": "glycan array binding signal (z-score)", "setting": "[24]", "result": -0.347}, {"measurement": "glycan array binding signal (z-score)", "setting": "[25]", "result": -0.2}, {"measurement": "glycan array binding signal (z-score)", "setting": "[26]", "result": 0.103}, {"measurement": "glycan array binding signal (z-score)", "setting": "[27]", "result": -0.365}, {"measurement": "glycan array binding signal (z-score)", "setting": "[28]", "result": -0.288}, {"measurement": "glycan array binding signal (z-score)", "setting": "GlcNAc(b1-3)Fuc", "result": -0.128}, {"measurement": "glycan array binding signal (z-score)", "setting": "GlcNAc(b1-3)Gal", "result": -0.336}, {"measurement": "glycan array binding signal (z-score)", "setting": "[29]", "result": -0.252}, {"measurement": "glycan array binding signal (z-score)", "setting": "GlcNAc(b1-3)Gal(b1-4)Glc", "result": -0.35}, {"measurement": "glycan array binding signal (z-score)", "setting": "[30]", "result": -0.352}, {"measurement": "glycan array binding signal (z-score)", "setting": "[31]", "result": -0.049}, {"measurement": "glycan array binding signal (z-score)", "setting": "[32]", "result": -0.05}]}]}
